The campaign covered roughly 150,000 compounds. About 540 (0.36%) showed an effect of 50% or more. The list shows a part of the results.
Tested on: Plasmodium falciparum
Assay: Primary screen in NF54 nanoGlo assay, in single point, at 2uM, 72h; a lower Z score goes with more inhibition
Assay type: functional, Erythrocyte
Conditions: timepoint 72 hour

| SMILES | % Inhibition [%] | Z score | % Inhibition (2 µM) [%] |
| --- | --- | --- | --- |
| Cc1ccc(NCc2ccccn2)c(N(C)C)n1 | -17 | 1.5 |  |
| CCC(=O)N1CC[C@H](c2nc(C)no2)[C@H](NC(=O)COC)C1 | -11 | 1.38 |  |
| Cc1cc(C(=O)Nc2nc3c(s2)CNCC3)no1 | 16 | -2.07 |  |
| O=C(N[C@H]1CCOC[C@@H]1Oc1ccc(CO)cc1)c1ncc(F)cc1F | -17 | 1.9 |  |
| O=C(Nc1ccc(Cl)c(Cl)c1)C1=C(c2ccccc2)S(=O)(=O)CCO1 | 4 | -0.5 |  |
| Cc1ccc(S(=O)(=O)c2ncccc2CNCCO)cc1 | -7 | 0.85 |  |
| CC[C@@H](CO)NCc1ccc(OC)cc1OC |  |  | -6 |
| C=CCN(C)C(=O)NCC#Cc1ccc(C(F)(F)F)cc1 | -1 | 0.12 |  |
| C[C@H]1CN(C(=O)c2cccc(-n3cccn3)n2)CCC1(F)F | -13 | 1.72 |  |
| CN(C)c1cccc(CNCc2ccc(C#N)cc2)c1 | 1 | -0.08 |  |
| COC(=O)CC1(NCc2ccc(F)c(C)c2)CCS(=O)(=O)CC1 | -9 | 0.9 |  |
| c1ccc(CN2CCCN(Cc3cnsn3)CCOCC2)cc1 | 28 | -3.57 |  |
| CN(CC(=O)Nc1cc(F)cc(F)c1)c1ncnc2[nH]ccc12 | -10 | 1.89 |  |
| Cc1cnn(CCC(=O)N2C[C@H]3CN(Cc4ccccc4)C[C@@]3(CN(C)C)C2)c1 | -4 | 0.68 |  |
| Clc1cnn(Cc2csc(-c3ccco3)n2)c1 | -11 | 2.07 |  |
| Cc1cc(CN(C)Cc2nc(C(F)(F)F)no2)no1 | 3 | -0.5 |  |
| Cc1nc([C@H](C)n2ccnc2-c2cccc(-n3cccn3)c2)cs1 | -15 | 1.8 |  |
| Cn1cc(Cl)cc1C(=O)N1CC[C@](C)(C(=O)OC(C)(C)C)C1 | 15 | -1.7 |  |
| CC(C)N1CCO[C@@H](CCNC(=O)c2ccc3cccnc3n2)C1 | -11 | 1.79 |  |
| CCN(C1CCN(C(=O)[C@H](C)OCCC(C)C)CC1)S(C)(=O)=O | -12 | 1.58 |  |
| O=C1[C@H]2[C@@H](C(=O)N1Cc1ccccc1)[C@]1(C(=O)Nc3ccc(Cl)cc31)N1CCC[C@@H]21 | -4 | 0.56 |  |
| O=C1CCC(CCNCCOc2ccc(F)cc2)N1C1CCN(Cc2ccccc2)C1 (centres undefined) | -12 | 1.37 |  |

| SMILES | % Inhibition [%] | Z score | % Inhibition (2 µM) [%] |
| --- | --- | --- | --- |
| Cc1ccc(-c2ncn(C3CCCCC3)c2-c2ccc(C(=O)NCCCOC(C)C)o2)cc1 | -5 | 0.74 |  |
| NC(=O)c1cnccc1N1CCCN(CCCc2ccccc2)CC1 | -7 | 0.71 |  |
| N=C1CCCN1c1c(Cl)cccc1Cl | 39 | -5.71 |  |
| CCn1ncc2c1CCCC2NC(C)c1nc(C2CC2)no1 (centres undefined) | -8 | 0.96 |  |
| CN(C(=O)c1scc2c1CCCC2)[C@H]1COC[C@@H]1O | -9 | 1.46 |  |
| Cc1noc(OCc2cccc3cccnc23)n1 | -14 | 1.94 |  |
| CCOC1CC(NC(=O)CCCn2ccnc2)C12CCCC2 (centres undefined) | -17 | 1.83 |  |
| Cc1nc([C@H]2CCCN2C(=O)NC2CCCc3nn(C)cc32)cs1 (some centres undefined) | -33 | 3.93 |  |
| CCn1nccc1S(=O)(=O)N1CCOc2ccc(OC)cc21 | -4 | 0.88 |  |
| CC(C)c1ccc([C@H](CCO)NC(=O)c2ccc(-n3cnnc3)nc2)cc1 | -11 | 1.38 |  |
| O=C(NCCc1nc(C(F)(F)F)cs1)[C@@H]1CCCN[C@@H]1C1CC1 | 11 | -1.38 |  |
| COc1cccc([C@@H](C)NC(=O)c2cc(COc3ccc(F)c(F)c3)on2)c1 | -11 | 1.23 |  |
| CC1(C)C(NC(=O)c2ccccc2OCC2CC2)C2CCOC21 (centres undefined) | -2 | 0.28 |  |
| C[C@]1(c2nc(Cn3cc(Br)cn3)no2)CCNC(=O)C1 | 1 | -0.18 |  |
| O=C(NS(=O)(=O)c1cnc2n1CCC2)c1cnn(Cc2ccccc2)c1 | -4 | 0.52 |  |
| COC(=O)[C@]1(C)CN(C(C)C(=O)NCc2ccccc2)C[C@H]1C (some centres undefined) | 4 | -0.51 |  |
| O=C(Cn1c2c(c(=O)n3nc(-c4ccccc4)nc13)CCC2)Nc1ccccc1 | -3 | 0.42 |  |
| CCN(C[C@H]1CCCCO1)c1nnnn1-c1ccccc1 | -2 | 0.31 |  |
| O=C1NC2(CCN(S(=O)(=O)c3cccc(C(F)(F)F)c3)CC2)N=C1c1cccc(Cl)c1 | 0 | -0.03 |  |
| C[C@@H](c1ccc2c(c1)CCC2)S(=O)(=O)Cc1ccn(C)n1 | 2 | -0.35 |  |
| c1ccc2c(c1)CCN(Cc1csc3c1CCCC3)C2 | -9 | 0.85 |  |
| CCNC(=O)CN(CC)C(=O)c1ccsc1 | -6 | 0.64 |  |

| SMILES | % Inhibition [%] | Z score | % Inhibition (2 µM) [%] |
| --- | --- | --- | --- |
| CCOc1ncccc1CNC(=O)c1cccn1C | -8 | 1.5 |  |
| CC(C)c1nnc(NS(=O)(=O)CC2CCCC2)s1 | -12 | 1.23 |  |
| O=C(NCc1ccco1)c1ccc2c(c1)OCO2 | 40 | -4.48 |  |
| CC(C)(C)OC(=O)C1CCC(C(=O)O)CN1C(=O)OC(C)(C)C (centres undefined) | -3 | 0.42 |  |
| Cc1ccccc1C(CN1CCOCC1)NCC1CCCO1 (centres undefined) | -12 | 1.51 |  |
| CCN1CCN(c2c(CN(CCOC)C(=O)COCc3ccccc3)c(C)nn2-c2cccc(F)c2)CC1 | 9 | -1.51 |  |
| C[C@H]1CC(=O)N(Cc2nc(-c3c(F)cccc3F)cs2)C1=O | 7 | -0.71 |  |
| COc1ccc(S(=O)(=O)N2CC3CN(C(=O)c4cc(C)oc4C)CC(C2)O3)cc1 | -13 | 1.15 |  |
| C[C@@H]1CN(Cc2ccccc2)CCN1Cn1nc2c(cc1=O)CCC2 | -2 | 0.26 |  |
| CCOC(=O)N1CCN(C(=O)C2C3C(=O)N(c4nc5cc(OC)ccc5s4)C[C@]34C=C[C@H]2O4)CC1 (some centres undefined) | 0 | 0.05 |  |
| CC(C)(C)NCCN1CCn2c1nc1ccccc12 | -12 | 1.8 |  |
| C#CCN(CC#CC)C(=O)Nc1cccnc1 | -3 | 0.49 |  |
| Cc1cccc(OCc2nc(CN(C(=O)c3ccccc3F)C3CC3)cs2)c1 | -3 | 0.3 |  |
| C=CCC1(OCc2ccccc2)CCN(C(=O)CN2CCCC2=O)CC1 | -13 | 2.36 |  |
| CCCCN1CCN(C(=O)Cc2cc(F)ccc2C)CC1=O | 1 | -0.16 |  |
| C[C@@H](Cc1ccccc1)CN(CCO)c1ccccc1 | -4 | 0.47 |  |
| O=C(Nc1nnc[nH]1)c1ccc2c(c1)CCCC2 | -9 | 0.86 |  |
| O=C(Cn1ccc2ccccc21)N1CC[C@H](n2ccnn2)C1 | -14 | 1.81 |  |
| O=C(CCc1ncc(-c2ccccc2)o1)Oc1ccc(N2CCCC2=O)cc1 | 0 | 0 |  |
| Cc1[nH]c(C)c(S(=O)(=O)NCc2ccco2)c1-c1nnc(C2CCC2)o1 | -20 | 3.95 |  |
| Cc1ccc2c(c1)CC[C@@H](C(=O)Nc1cc(C)cn(C)c1=O)O2 | -7 | 1.12 |  |
| O=C(Nc1nc2c(s1)CN(C(=O)c1cc(-c3ccc(F)cc3)n[nH]1)CC2)c1ccco1 | -17 | 2.74 |  |

| SMILES | % Inhibition [%] | Z score | % Inhibition (2 µM) [%] |
| --- | --- | --- | --- |
| CCOC(=O)N1CCC(NC(=O)[C@H]2CC23CCN(Cc2ccc(OC)c(OC)c2Cl)CC3)CC1 | -6 | 0.77 |  |
| C#Cc1cccc(NCc2cc(=O)n3ccccc3n2)c1 | -11 | 1.84 |  |
| COC[C@@]12CN(C(C)=O)CC[C@@H]1CN(S(=O)(=O)c1ccccc1F)C2 | -7 | 0.8 |  |
| CN(C)c1ccc(NC(=O)c2cccs2)cc1CN(CC1CC1)C(=O)c1cccs1 | 11 | -1.28 |  |
| CC(=O)Nc1ccc(C(=O)OC(C)C)cc1 | 7 | -0.98 |  |
| CC1CN(C(=O)CCC(O)c2ccc3c(c2)CCC(=O)N3)CC(C)O1 (centres undefined) | -7 | 0.78 |  |
| O=C(O)[C@H]1CN(Cc2ccc3occc3c2)C[C@@H]1c1ccccn1 | -10 | 1.33 |  |
| O=C(NC(C1CC1)C1CC1)c1cc(C2CC2)on1 | 2 | -0.22 |  |
| O=C(Nc1nc(C2CC2)cs1)N1CCCC1 | -15 | 1.82 |  |
| Cc1c(CN(C)C(=O)NC[C@H]2CCOC(C)(C)C2)cnn1C | 3 | -0.35 |  |
| Cc1nc(CNC(=O)[C@H]2CCCN(Cc3ccco3)C2)sc1C | -6 | 0.71 |  |
| Cc1nonc1CNC(=O)C1(N2CCOCC2)CCCCC1 | -5 | 0.66 |  |
| CN(C)c1ccc(S(=O)(=O)Nc2ccc(C(C)(C)C(=O)O)cc2)cc1 | 2 | -0.29 |  |
| Cc1nc(C)c(C(=O)N2CCC3(CCC(=O)N(CC4CC4)C3)CC2)o1 | -10 | 0.9 |  |
| Cc1cccc(N2CCN(C(=O)CN3CCN(Cc4ccc(Cl)cc4)C3=O)C[C@@H]2C)c1 | 39 | -5.19 |  |
| C[C@@H](CCNC(=O)N(C)Cc1nc2ccc(F)cc2[nH]1)N1CCN(C)CC1 | -14 | 2.61 |  |
| COc1ccc(C(=O)Nc2cc(C(C)C)c(O)c(S(=O)(=O)c3ccccc3)c2C)cc1 | -4 | 0.51 |  |
| O=S(=O)(C[n+]1sc(N(c2ccccc2)c2ccccc2)nc1-c1ccccc1)c1ccccc1 | 4 | -0.67 |  |
| CCOCC1CCN(Cc2cc(C#N)c(C)[nH]2)CC1 | -5 | 0.64 |  |

From ChEMBL document CHEMBL4888484, “Replenishing the malaria drug discovery pipeline: Screening and hit evaluation of the MMV Hit Generation Library 1 (HGL1) against asexual blood stage Plasmodium falciparum ,using a nano luciferase reporter read-out” (2022)
